The values below come from PubChem BioAssay (Tox21).

Inconclusive results are not listed. Unless noted, the call rests on the fitted dose curve; in most records, active means well fitted curve in the direction sought with a large enough effect in the repeat runs; inconclusive means weak or mixed curves; inactive means no such curve, though single readings can be large; an effect the other way counts as inactive or inconclusive. Some compounds were tested as several samples or in several runs, with calls that do not always agree. For part of its entries the source gives two or more results. This list holds those alone. The source may hold further records. Results that share an entry are repeated measurements (runs, samples, wells, individuals or studies). Marks in square brackets tell the records apart. A, B and so on number the origins entry by entry.

Experiment [1] can be described thus: qHTS assay for small molecules that induce genotoxicity in human embryonic kidney cells expressing luciferase-tagged ATAD5 - cell viability (AID 651634; calls by dose curve; further: nearly all actives have a fitted effect of over 25% in size). Particulars: HEK293T ATAD5-luc cells viability, CellTiter-Fluor, 15.5 h; series mostly up to 83.3 µM. The essentials:
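Here HEK293T cells with the ATAD5 luciferase reporter are incubated with test compounds for 15.5 hr, and cytotoxicity is then gauged by measuring protease activity in live cells using fluorescence.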
In general terms: qHTS replaces the single test concentration by a dilution series.

Experiment [2] can be described thus: qHTS assay to identify small molecule antagonists of the glucocorticoid receptor (GR) signaling pathway - cell viability counter screen (AID 720693). Further: nearly all actives have a fitted effect of over 55% in size. The settings on record: GR-bla HeLa viability, CellTiter-Glo luminescence, 18 h, with 5 nM dexamethasone present; series mostly up to 58.5 µM.
Experiment [3] in a line: qHTS assay to identify small molecule antagonists of the androgen receptor (AR) signaling pathway using the MDA cell line - cell viability counter screen (AID 743041; further: nearly all actives have a fitted effect of over 45% in size). The settings on record: MDA-kb2 viability, CellTiter-Fluor, 16 h, cells co-treated with R1881 androgen agonist; series mostly up to 70.3 µM. In short, it runs like this: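 Viability read by CellTiter-Fluor fluorescence in the same wells as the antagonist screen, added after 15.5 h of a 16 h, 37C exposure. Human breast carcinoma MDA-kb2 AR-luc cells, compounds co-dosed with agonist R1881.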

A short description of experiment [4]: qHTS assay to identify small molecule antagonists of the constitutive androstane receptor (CAR) signaling pathway - cell viability counter screen (AID 1224837). Further: nearly all actives have a fitted effect of over 45% in size. The settings on record: HepG2-CYP2B6-hCAR viability, CellTiter-Fluor, 23 h, co-treated with 50 nM CITCO; series mostly up to 92.4 µM. In short, it runs like this: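 CITCO at 50 nM final was added alongside compounds (15 concentrations) to double-stable hCAR/CYP2B6-2.2kb HepG2 cells. Following 23 hr at 37 C, cell viability was quantified by CellTiter-Fluor fluorescence intensity.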

A short description of experiment [5]: A CellTox Green Cytotoxicity Assay to monitor cytotoxicity in HEK293 cells - 24 hour (AID 1224875). Further: nearly all actives have a fitted effect of over 45% in size. The settings on record: CellTox Green fluorescence; series mostly up to 76.8 µM. In short, it runs like this: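 Real-time, in one plate: 600 HEK293 cells/well with dead-cell DNA dye, pinned compound after 5 h, 37 C incubation over 40 h; viable cells give no appreciable fluorescence.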

Experiment [6] is described as follows: A CellTox Green Cytotoxicity Assay to monitor cytotoxicity in HEK293 cells - 16 hour (AID 1224888). Further: nearly all actives have a fitted effect of over 35% in size. The settings on record: CellTox Green fluorescence; series mostly up to 76.8 µM. From the text: National Center for Advancing Translational Sciences [NCATS]
NIH Chemical Genomics Center [NCGC]
U.S. Environmental Protection Agency [EPA]
National Institutes of Environmental Health Sciences [NIEHS]
National Toxicology Program [NTP]
Cell-based models are critical for drug discovery. Determining the natural cytotoxic effects resulting from test compounds is an essential research activity. A CellTox Green Cytotoxicity Assay to monitor cytotoxicity in real time of continues cell culture during 40 hours of the compound treatment was used to screen Tox21 10K library compounds in Hek293 cells. CellTox Green Cytotoxicity Assay is a nonlytic, homogeneous, biofluorescent method to measure cytotoxicity in cell culture after experimental manipulation. The assay system uses a proprietary asymmetric cyanine dye that is excluded from viable cells but preferentially stains the dead cell's DNA. […] Viable cells produce no appreciable increases in fluorescence. Therefore, the fluorescence signal produced by the binding interaction with dead cell DNA is proportional to cytotoxicity.
The mixture of Hek293 cell suspension and reagents were dispensed at 600cells/6 ul/well in 1536-well tissue culture treated black solid bottom plates using a Multidrop dispenser. […] The fluorescence intensity were measured at 0h, 8h, 16h, 24h, 32h and 40h time points using ViewLux plate reader during compound treatment.
Potency means the concentration at half of the fitted maximal effect.

`Oc1c(Cl)cc(Cl)c(Cl)c1Cl`: the Potency entry in experiment [1] is “active: 53.3 µM [sample A] and inactive [sample B]”.

As for `C=C1CC[C@H](O)CC1=C/C=C1\CCC[C@]2(C)[C@@H]([C@H](C)/C=C/[C@H](C)C(C)C)CC[C@@H]12`, in experiment [2], the Potency result was “inactive [sample A] and active: 48.5 µM [sample B]”.

For `C=C(C)C(=O)OCCC[Si](OC)(OC)OC`, the Potency entry in experiment [2] was “inactive [sample A] and active: 12.3 µM [sample B]”.

In the case of `O=[N+]([O-])c1cc(N(CCO)CCO)ccc1NCCO`, the Potency entry in experiment [3] was “active: 48.5 µM [sample A] and inactive [sample B]”.

Turning to `O=C1N=C(O)CN1/N=C/c1ccc(-c2ccc([N+](=O)[O-])cc2)o1`, the Potency result in experiment [3] is “inactive [sample A] and active: 27.3 µM [sample B]”.

In the case of `COC(=O)c1ccc(C(=O)OC)cc1`, in experiment [4], the Potency result is “active: 12.4 µM [sample A] and inactive [sample B]”.

Take `CCCCC(CC)COC(=O)CCCCCCCC(=O)OCC(CC)CCCC` (stereo unspecified): the Potency result was “active: 30.6 µM [sample A] and inactive [sample B]” in experiment [4]; “active: 54.9 µM [sample A] and inactive [sample B]” in experiment [5]; “active: 54.9 µM [sample A] and inactive [sample B]” in experiment [6].

Turning to `C=C(C)C(=O)OCC(CC)(COC(=O)C(=C)C)COC(=O)C(=C)C`, the Potency result in experiment [5] was “inactive [sample A] and active: 38.2 µM [sample B]”; in experiment [6] it was “inactive [sample A] and active: 38.2 µM [sample B]”.
